Values marked as one replicate rest on one cluster of the flow cell; about a third of the high ones do not repeat.
Test system: ATP
Experiment: switch fluorescence ratio, 500 uM ATP over buffer (Cy3 cluster intensity, sum of 5 cycles each) (fold (ratio)); higher = stronger signal-on switching upon ATP binding; sequences stand for … in TCGTCGGCAGCGTCAGATGTGTATAAGAGACAGTTTTTTTTTTTTTTTTTTTTTTTTT…TC
Details: aptamer strand: ATP DNA aptamer (quencher-CACCTGGGGGAGTATTGCGGAGGAAGG + anchor), 100 nM annealed; ATP concentration: 500 uM; one replicate
Procedure, shortened: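 Five buffer/ATP imaging cycles were run on Cy3-labelled switching-strand clusters on a modified Illumina MiSeq flow-cell, with NaOH stripping and re-annealing between cycles. In each cycle, clusters annealed to 100 nM quencher-labelled ATP aptamer were imaged in selection buffer, then after 15 min with 500 uM ATP at 22 °C. Per cluster, the fluorescence ratio is summed target-cycle over summed buffer-cycle Cy3 intensity, averaged per switch-domain sequence. Only clusters within 100-1000 RFU were kept.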
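Further: ATP exposure 15 min at 22 °C before imaging.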

Row | Sequence | switch fluorescence ratio
1 | CTGTCGCGAC | 0.994
2 | GTCAGGTA | 1
3 | TCTGGACTAG | 0.96
4 | CTCACCGTAC | 1.84
5 | TTCTAGAGGG | 0.993
6 | GCACAAATCT | 1.03
7 | CGACTGGGGT | 1.06
8 | TGAGGAGAAC | 1.18
9 | GCGCTTTAAA | 1.06
10 | TATCTTCAAA | 0.989
11 | AGGGAGACGC | 0.966
12 | TTGACTTAAT | 1.05
13 | ACATCGCCTC | 1.07
14 | GGTACTGGGT | 1
15 | CCGTTGGGGA | 0.991
16 | GGACTTACTT | 1.22
17 | TCGAGTCGCG | 1.02
18 | TGCCCCGCTA | 1.79
19 | GGTTGGCTTG | 1.02
20 | CTTCGCCGAG | 1.07
21 | CTTAGTATGG | 0.939
22 | GACACGTTTG | 0.95
23 | TCGGCACTG | 1.13

Row | Sequence | switch fluorescence ratio
24 | ATAAAAGTTG | 1.02
25 | AAAGTCGAGA | 0.982
26 | ATCAAGATGT | 0.976
27 | TAAAACTAG | 1.02
28 | GTAGAGGCCT | 0.974
29 | CTTTACAGAC | 1.19
30 | CATACTAACT | 1.08
31 | AGCGGCTTCT | 1.01
32 | TAAGGGTCCA | 1.03
33 | GAATCAGGCG | 1.04
34 | CGGTTTAAAT | 0.995
35 | GTACTGCGG | 0.991
36 | GCGGGGTCGC | 0.939
37 | GAGTCGTGCT | 0.993
38 | AGACAGTTGT | 1.02
39 | CCATTGGTTA | 0.992
40 | CAGCTGTTGA | 1.04
41 | GACTCACTTT | 1.13
42 | TATTAAAAGT | 0.991
43 | TTTAAGAACG | 1
44 | GAAAATGGAC | 1.03
45 | GCGTCGTGGG | 1.01
46 | AAGCGCGCGG | 0.97

Row | Sequence | switch fluorescence ratio
47 | TTCTATAAAC | 1.04
48 | TGTGTTTTAC | 1.12
49 | CCAGTTCTTG | 0.964
50 | CGGTAGATTT | 1.01
51 | TGCTGGATGC | 0.99
52 | ATAGGTATC | 0.984
53 | AAGTGAGCCT | 1.06
54 | ACACTAAGGC | 1.07
55 | TGCTTATGTA | 0.972
56 | GGAAATTGTT | 0.942
57 | GACCTCTTTC | 1.2
58 | GCCGTATGTT | 1.01
59 | ACTCCAGGGG | 1.12
60 | CTCTGAGAAG | 1.04
61 | AAGTAATAT | 1.02
62 | AGACGGATCT | 0.964
63 | ATGCCATATT | 0.972
64 | TGTCATGAAT | 0.97
65 | TTTCCGGCG | 2.02
66 | GATTTACGGC | 1.05
67 | TCTTAAGTTT | 1.01
68 | CCCCGGTTGG | 1.18
69 | CGGTTTCGTT | 1.02

Row | Sequence | switch fluorescence ratio
70 | GCTGGGTACG | 1.01
71 | AAGCTAGGCA | 1.02
72 | TCTTCTAAGG | 1.04
73 | TAAGGCATCG | 0.966
74 | GGAAAATGGA | 1.05
75 | ACGGGAGGCA | 1.02
76 | GTGAGCGGGA | 1.05
77 | TTCCGACCCT | 1.16
78 | TTCGGCTTCG | 1.02
79 | GCTCGACCAG | 1.35
80 | AGCAGCGTCT | 0.81
81 | TACACGGGGG | 1.07
82 | GAATGTATAG | 0.935
83 | CGATTGAATT | 0.976
84 | GCGGTACGGG | 1.07
85 | CTTCAATGGG | 1.08
86 | CGATTCCCGA | 1.05
87 | ATATGGCAGC | 0.96
88 | GAATGGTGC | 0.903
89 | GCACGGGATT | 1.08
90 | TATAGGCTTG | 0.976
91 | AGCGGGTG | 1.03
92 | CACGGGCGGT | 1.02

Row | Sequence | switch fluorescence ratio
93 | GCAAGACCCG | 1.2
94 | TAGATCATAC | 1.03
95 | GCTATTCTTA | 1.02
96 | CGATGTACTT | 1.05
97 | CCATGCTAGC | 1.11
98 | GGGTAAAAAT | 0.926
99 | CAGGCCAGTC | 1.05
100 | TGACGGTTAG | 0.986
101 | GGACAGCTGG | 0.999
102 | AAAGGGATTT | 0.972
103 | TGGGGGATGA | 1.02
104 | GCCTATCGAC | 1.03
105 | CGGTATACC | 0.973
106 | AGCGACTGAC | 1.35
107 | CGACTATAGT | 0.945
108 | ATCTATAAC | 1.02
109 | TGTCATGGGA | 0.965
110 | AAAGGGTCC | 1
111 | GGTCTATCAG | 0.978
112 | GACCCGTTGT | 0.953
113 | GGGGTTAGAC | 0.983
114 | TCTCTGCTTG | 1.02
115 | GGGTAGGCCA | 0.979

Row | Sequence | switch fluorescence ratio
116 | TACACATCGA | 1.06
117 | TGTGTGATCC | 0.908
118 | GGGCATCTCT | 0.976
119 | CAGCGTGATG | 1
120 | GCTGCTGCGC | 0.986
121 | AAGGAGCACA | 1.13
122 | ACATTCGCT | 1.02
123 | ATATTCACC | 1.06
124 | GCTCGAGCAG | 0.985
125 | ATCCTGGTTC | 0.994
126 | GCACTCTGTG | 0.989
127 | CCACCCAGGA | 1.88
128 | GGACGGTCCC | 0.969
129 | CAAGCTGTCG | 1.01
130 | TGGTAGAACG | 0.985
131 | CTCATTTAAT | 1.03
132 | CGTATCTGTT | 0.986
133 | AGGGGATTAG | 1.17
134 | CGCAGAGCAT | 1.01
135 | TGTATGCAAT | 1.08
136 | CGGGAAGGTG | 1.46
137 | TCCAAGTTC | 0.985
138 | CGCTTGGGAG | 1

Row | Sequence | switch fluorescence ratio
139 | CTAGTTTAGC | 1.02
140 | TTATTCAGT | 1.01
141 | GCATAAGCCC | 1.05
142 | CGTGACTAGC | 1.07
143 | GGGAACTCGA | 1.01
144 | GCGGTTAGAT | 1.36
145 | TCCTACTCCC | 1.85
146 | TTACCATAAG | 1.05
147 | AATCACTCGA | 0.978
148 | ATCTGTTAT | 0.993
149 | CCGGTAACCC | 1.1
150 | AAAGTATAAT | 1.03
151 | TATTGTTCCC | 0.955
152 | TGGGCCATAG | 1.43
153 | ATCCCTTTCG | 0.999
154 | GATGGAGGAC | 1.02
155 | GCTTAATAT | 1.02
156 | TGCCTGTTAG | 0.99
157 | AAAGGTCTCA | 0.945

— the supplement of paper PMC10126150
